{"source": "PubChem BioAssay AID463173", "about": "(ICCB-Longwood Screening Facility, Harvard Medical School, 2010)", "note": "The campaign covered roughly 52,000 compounds. About 4,300 (8.3%) were called active. Rule as the data show it: active = survival mostly below about 52% (no sharp cut-off); inactive = mostly above about 56%. The list shows a part of the results.", "data": [{"test_system": "DeltatarO mutant", "assay": "S. aureus survival, RN4220 and DeltatarO strains – OD600, teichoic acid synthesis inhibitors, primary screen (AID 463173)", "settings": "S. aureus RN4220 wild type/DeltatarO growth, OD600, 18 h, stronger effect = lower value, screened at 18.75 µg/mL (by protocol)", "values": [{"molecule": "CCOC(=O)c1cnc2nc(NCc3cccc(Br)c3)[nH]n2c1=O", "survival": "inactive: 86%"}, {"molecule": "CC(C)=NOC1=NS(=O)(=O)c2ccccc21", "survival": "inactive: 92%"}, {"molecule": "COc1ccccc1CNS(=O)(=O)c1ccc(-c2cnc(C3CC3)o2)cc1", "survival": "inactive: 75%"}, {"molecule": "Cn1ccc2c(OCC(=O)NCc3ccccc3)cccc2c1=O", "survival": "inactive: 100%"}, {"molecule": "COCCNC(=O)c1c[nH]c2ccc(S(=O)(=O)Nc3ccc(F)cc3F)cc2c1=O", "survival": "inactive: 98%"}, {"molecule": "CC(C)c1nn2c(=O)cc(COC(=O)c3cccc(NC(=O)c4cccs4)c3)nc2s1", "survival": "inactive: 70%"}, {"molecule": "CCCOc1ccc(-c2nonc2NC(=O)c2cc(OC)c(OC)c(OC)c2)cc1OCCC", "survival": "inactive: 84%"}, {"molecule": "CCc1ccc(C2=NN(CCC(=O)NCCc3ccc(OC)c(OC)c3)C(=O)CC2)cc1", "survival": "inactive: 88%"}, {"molecule": "O=C(c1cc2ccccc2oc1=O)N(Cc1cccs1)Cc1cccs1", "survival": "inactive: 48%"}, {"molecule": "Cc1ccc(N2CC(NC(=O)c3cc4ccccc4o3)CC2=O)cc1C", "note": "(configuration not stated)", "survival": "inactive: 102%"}, {"molecule": "Clc1ccc(-c2nc3c4cnn(-c5ccccc5Br)c4ncn3n2)c(Cl)c1", "survival": "inactive: 77%"}, {"molecule": "COC(=O)CSc1nc2sc3c(c2c(=O)n1-c1ccccc1C)CC(C)(C)OC3", "survival": "inactive: 73%"}, {"molecule": "Cc1ccccc1NC(=O)c1sc2nc3n(c(=O)c2c1C)CCC3", "survival": "inactive: 78%"}, {"molecule": "CCc1ccc(NS(=O)(=O)c2cc(-c3cnc(C4CC4)o3)ccc2C)cc1", "survival": "inactive: 116%"}, {"molecule": "Cc1oc(-c2ccc(C(=O)NCCC(C)C)cc2)nc1CN1CCc2ccccc21", "survival": "inactive: 95%"}, {"molecule": "COc1ccccc1CNC(=O)CC(c1ccc(C)cc1)N1Cc2ccccc2C1=O", "note": "(configuration not stated)", "survival": "inactive: 67%"}, {"molecule": "Cc1cc(C)cc(-n2ccn(Cc3ccccc3C)c(=O)c2=O)c1", "survival": "inactive: 69%"}, {"molecule": "O=C(CCC1CCCC1)NCc1ccco1", "survival": "inactive: 71%"}, {"molecule": "Cc1nc(C)c(C(=O)O)o1", "survival": "inactive: 89%"}, {"molecule": "COc1ccc2c(c1)Cc1sc(NC(=O)c3cccc(C)c3)nc1-2", "survival": "active: 18%"}, {"molecule": "O=C(c1cc2nc(-c3ccco3)cc(C(F)(F)F)n2n1)N1CCCc2ccccc21", "survival": "inactive: 117%"}, {"molecule": "COc1ccc(S(=O)(=O)c2c(C(=O)c3ccc(C)c(C)c3)cnc3ccc(F)cc23)cc1", "survival": "inactive: 80%"}, {"molecule": "CC(C)c1ccc(OCC(=O)Nc2c(C(=O)c3ccc(F)cc3)oc3ccccc23)cc1", "survival": "active: 65%"}, {"molecule": "Cc1ccc(-n2nnc(-c3nc(-c4cccs4)no3)c2N)c(C)c1", "survival": "inactive: 101%"}, {"molecule": "Cc1nonc1OCCN1CCN(c2cnn(-c3ccccc3)c(=O)c2Cl)CC1", "survival": "inactive: 88%"}, {"molecule": "CN1C(=O)/C(=C\\C2(C)N3CC4(C)CN2CC(C)(C3)C4=O)c2ccccc21", "note": "(configuration not stated)", "survival": "inactive: 69%"}, {"molecule": "CC(C)(C)NC(=O)CSc1nc2ccccc2c(=O)[nH]1", "survival": "inactive: 105%"}, {"molecule": "Cc1c(C)n(C)c2ccc(C(=O)NCc3cccc(F)c3)cc12", "survival": "inactive: 72%"}, {"molecule": "COc1cc2c(cc1NC(=O)COc1ccc(Cl)cc1Br)oc1ccccc12", "survival": "inactive: 51%"}, {"molecule": "CCOC(=O)CSc1nnc2n(-c3ccccc3)c(=O)c3c4c(sc3n12)CC(C(C)(C)C)CC4", "note": "(configuration not stated)", "survival": "active: 46%"}, {"molecule": "O=C(NCC1CC1)C1C2C3C4CC5C3C5C4C12", "note": "(configuration not stated)", "survival": "inactive: 93%"}, {"molecule": "Cc1cccc(C)c1NC(=O)CS(=O)CC(=O)Nc1ccc(F)c(F)c1", "note": "(configuration not stated)", "survival": "inactive: 93%"}, {"molecule": "COc1ccccc1CNC(=O)Cn1ncn2c(cc3sccc32)c1=O", "survival": "inactive: 70%"}, {"molecule": "Cc1ccc(Nc2c(-c3ccsc3)nc3c(C)cccn23)cc1", "survival": "active: 20%"}, {"molecule": "COc1ccc(S(=O)(=O)NCc2cccn2Cc2cccc(C)c2)cc1", "survival": "inactive: 84%"}, {"molecule": "CCCCCSc1nc2sc3c(c2c(=O)n1-c1ccc(OC)cc1)CCN(C(C)=O)C3", "survival": "active: -18%"}, {"molecule": "COc1ccccc1NC(=O)CC(c1cc(OC)c(OC)c(OC)c1)N1Cc2ccccc2C1=O", "note": "(configuration not stated)", "survival": "inactive: 80%"}, {"molecule": "Clc1ccc(C(c2ccccc2)c2c[nH]c3ccccc23)s1", "note": "(configuration not stated)", "survival": "active: -3%"}, {"molecule": "Cc1ccc2[nH]c3c(=O)n(CC(=O)N4CCCCC4)ncc3c2c1", "survival": "inactive: 84%"}, {"molecule": "Cc1ccc(C)n1-c1nnc(N2CCCC(C(=O)NCc3cccc(F)c3)C2)s1", "note": "(configuration not stated)", "survival": "inactive: 82%"}, {"molecule": "COc1ccc(OC)c(CNC(=O)C2CCN(c3nc4ccccc4nc3C(F)(F)F)CC2)c1", "survival": "inactive: 106%"}, {"molecule": "CCc1ccccc1Nc1nc2ccccc2c2nncn12", "survival": "inactive: 58%"}, {"molecule": "CCc1ccc(S(=O)(=O)c2cn(Cc3ccccc3)c3cc(F)c(F)cc3c2=O)cc1", "survival": "inactive: 74%"}, {"molecule": "Cc1ccc(-n2nc(CO)c(C(=O)NCc3cccnc3)n2)cc1", "survival": "inactive: 90%"}, {"molecule": "COc1cc(OC)cc(-c2cc3nc(C)c(CCC(=O)NCc4ccc(Cl)cc4)c(C)n3n2)c1", "survival": "inactive: 113%"}, {"molecule": "O=C(COc1cccc(-n2cnnn2)c1)N1CCOCC1", "survival": "inactive: 81%"}, {"molecule": "Cc1cccc(N2CCN(C(=O)Cn3ncc4c5ccccc5n(C)c4c3=O)CC2)c1C", "survival": "inactive: 73%"}, {"molecule": "COc1ccc(C(=O)Nc2ccc(-n3nncc3-c3ccccc3)cc2)cc1OC", "survival": "inactive: 123%"}, {"molecule": "Cc1cc2oc(=O)cc(C)c2c2occ(-c3ccc(Cl)cc3)c12", "survival": "inactive: 72%"}, {"molecule": "COc1ccc2nc(NC(=O)c3nc(SC(C)C)ncc3Cl)sc2c1", "survival": "inactive: 93%"}, {"molecule": "CCC(=O)N1CCc2cc(Br)cc(S(=O)(=O)CCC(=O)N3CCN(c4ccccc4F)CC3)c21", "survival": "inactive: 80%"}, {"molecule": "O=C(NC1CCCC1)c1cc(Nc2cccc(C(F)(F)F)c2)nc2ccccc12", "survival": "inactive: 77%"}, {"molecule": "NC(=O)c1nc(Nc2ccccc2)sc1NC(=O)c1ccccc1Br", "survival": "inactive: 95%"}, {"molecule": "CCOC(=O)c1cccc(NS(=O)(=O)c2ccc(-c3cnc(C4CC4)o3)cc2)c1", "survival": "inactive: 99%"}, {"molecule": "O=C(C1CCN(S(=O)(=O)Cc2ccccc2)CC1)N1CCN(c2ccccc2)CC1", "survival": "inactive: 68%"}, {"molecule": "Cc1ccc(OCC(=O)Nc2ccc3nc(SCC(=O)N4CCOCC4)sc3c2)cc1", "survival": "inactive: 86%"}, {"molecule": "COc1ccccc1NC(=O)CSc1ncc2c(n1)-c1cc(Cl)ccc1N(Cc1ccccc1)S2(=O)=O", "survival": "inactive: 83%"}, {"molecule": "CCCCc1c(C)nc2c(-c3ccc(OC)cc3)c(C)[nH]n2c1=O", "survival": "active: 7%"}, {"molecule": "Cn1c(CN2CCCCC2)nc2cc(NC(=O)c3ccccc3Cl)ccc21", "survival": "inactive: 76%"}, {"molecule": "CCCCNC(=O)CCCn1c(=O)c2ccccc2n(Cc2cccc(Cl)c2)c1=O", "survival": "inactive: 100%"}, {"molecule": "N#Cc1c(N)n(-c2cccc(Cl)c2)c2nc3ccccc3nc12", "survival": "inactive: 90%"}, {"molecule": "COc1cccc(Nc2cc(C)nc3nc(-c4ccc(Cl)cc4)nn23)c1", "survival": "inactive: 71%"}, {"molecule": "COc1ccc(NCc2cc3cc4c(cc3n(CC(=O)Nc3cc(C)cc(C)c3)c2=O)OCO4)cc1", "survival": "inactive: 67%"}, {"molecule": "Cc1nn(C)c2c1c(-c1ccccc1)cc(=O)n2CC(=O)Nc1ccccc1C(F)(F)F", "survival": "inactive: 94%"}, {"molecule": "C=C(C)Cn1cnc2ccccc21", "survival": "inactive: 76%"}, {"molecule": "CCOC(=O)COc1ccccc1C1C(C(=O)OC)=C(C)NC2=C1C(=O)c1ccccc12", "note": "(configuration not stated)", "survival": "active: 39%"}, {"molecule": "O=C(NCCCc1nc2ccccc2n1Cc1c(F)cccc1Cl)C1CCCCC1", "survival": "inactive: 93%"}, {"molecule": "Cc1nc2c(c(C)c1CCC(=O)NCc1ccccc1)c(=O)n(C)c(=O)n2C", "survival": "inactive: 104%"}, {"molecule": "COCCCNC(=O)CSc1nc2c(sc3ccccc32)c(=O)n1CCc1ccccc1", "survival": "inactive: 72%"}, {"molecule": "COc1cc(NC(=O)CSc2nc3ccccc3nc2Cc2ccc(Cl)cc2)cc(OC)c1", "survival": "inactive: 79%"}, {"molecule": "CCOC(=O)c1cccc(NC(=O)c2cc3c(-c4cccc(OC)c4)nn(C)c3s2)c1", "survival": "inactive: 58%"}, {"molecule": "Cc1ccc(S(=O)(=O)c2nc(S(C)(=O)=O)sc2N(C)Cc2ccccc2)cc1", "survival": "inactive: 84%"}, {"molecule": "Cc1cccc(NC(=O)C2CCC(CNS(=O)(=O)c3csc(C(N)=O)c3)CC2)c1C", "note": "(configuration not stated)", "survival": "inactive: 75%"}, {"molecule": "COc1ccc(N(Cc2cccs2)C(=O)c2ccc(OCC(C)C)cc2)cc1", "survival": "inactive: 105%"}, {"molecule": "CCCc1nn2c(=O)cc(COC(=O)c3ccccc3NC(=O)c3cccs3)nc2s1", "survival": "inactive: 55%"}, {"molecule": "COc1cc(C2c3c(oc4ccccc4c3=O)C(=O)N2c2ccccn2)cc(OC)c1OC", "note": "(configuration not stated)", "survival": "inactive: 146%"}, {"molecule": "O=C(O)C(c1ccccc1)N1CCOCC1", "note": "(configuration not stated)", "survival": "inactive: 92%"}, {"molecule": "Cc1cccc(NC(=O)C2CCC(CNS(=O)(=O)c3ccc(Br)s3)CC2)c1", "note": "(configuration not stated)", "survival": "active: 52%"}, {"molecule": "Cc1ccc(C)c(C(=O)c2c(N)c(-c3nc(-c4ccc5c(c4)OCO5)cs3)c3ccccn23)c1", "survival": "inactive: 80%"}, {"molecule": "COc1cccc(C2CC(=O)N(c3ccc(F)cc3)C3=C2C(=O)OC3)c1OC", "note": "(configuration not stated)", "survival": "inactive: 75%"}, {"molecule": "COc1cc(NC(=O)Nc2cccc(-c3noc(C)n3)c2)cc(OC)c1OC", "survival": "inactive: 128%"}, {"molecule": "Cc1cn2c(=O)cc(COc3ccc(Cl)cc3)nc2s1", "survival": "inactive: 53%"}, {"molecule": "Cc1ccc(Cl)cc1NC(=O)Cc1ccc(-n2c(C)nc3cccnc32)cc1", "survival": "inactive: 116%"}, {"molecule": "CCOc1ccc(-n2c(=O)c3c(C)c(C)sc3n(CC(=O)N(CC)Cc3ccccc3)c2=O)cc1", "survival": "active: 45%"}, {"molecule": "CCOc1ccc(CNc2nc3nc(C)c(Cc4ccccc4)c(=O)n3[nH]2)cc1", "survival": "inactive: 81%"}, {"molecule": "CCc1ccc(CNC(=O)C2Cc3cc(S(=O)(=O)N4CCCCCC4)ccc3N2C(C)=O)cc1", "note": "(configuration not stated)", "survival": "inactive: 84%"}, {"molecule": "COc1ccc2c(c1)CC(C(=O)Nc1cc(Cl)ccc1C)CO2", "note": "(configuration not stated)", "survival": "inactive: 80%"}, {"molecule": "Cc1ccc(Cl)cc1NC(=O)c1oc2ccc(S(=O)(=O)N(C)C3CCCCC3)cc2c1C", "survival": "inactive: 78%"}, {"molecule": "Cc1ccc(S(=O)(=O)c2cn(Cc3cccc(C)c3)c3cc4c(cc3c2=O)OCO4)cc1", "survival": "inactive: 101%"}, {"molecule": "Cc1cccc(NC(=S)N2CCC(NC(=O)c3ccco3)CC2)c1", "survival": "inactive: 92%"}, {"molecule": "COc1ccc(CNCCNC(=O)c2cccs2)c(OC)c1OC", "survival": "inactive: 97%"}, {"molecule": "Cc1nn(C(C)C(=O)N2CCN(c3ccc(Cl)cc3)CC2)c(=O)c2cc3occc3n12", "note": "(configuration not stated)", "survival": "inactive: 60%"}]}]}
